Publication PMC13083723 (Patterns, 2026)
The campaign covered roughly 5,400 compounds. About 190 (3.5%) showed an effect of 50% or more. This is one part of the list. Residues, ends and D or L forms follow the SMILES beside them.

What follows are molecules tested on Vero-E6 (assay: primary screen, phospholipidosis by LipidTOX staining; higher = more effect of the substance). Settings: 10 µM.
How it was run: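 Single-concentration screen at 10 μM, with DMSO 0.1 v/v % and amiodarone 10 μM as controls. Read-out is LipidTOX Red phospholipid staining, which tolerates aldehyde fixation, in Vero-E6 cells.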

Row | Structure (SMILES) | result_ITMP
1 | O=c1nc[nH]c2c1cnn2[C@@H]1O[C@H](CO)[C@@H](O)[C@H]1O | 2.43%
2 | COc1c(-c2ccc3cc(NS(C)(=O)=O)ccc3c2)cc(-n2ccc(=O)[nH]c2=O)cc1C(C)(C)C | 1.09%
3 | COC(=O)/C=C/C(=O)OCCN1C(=O)CCC1=O | -4.7%
4 | Cn1ncc2c(N3CCOCC3)nc(-c3cccc(O)c3)nc21 | -4.96%
5 | C[C@@H](O)[C@H](N)C(=O)N1CCC[C@H]1C(=O)N1CCC[C@H]1C(=O)N[C@H](C(N)=O)[C@@H](C)O (H-TPPT-NH2) | -1.7%
6 | COc1cccc2c1C(=O)c1c(O)c3c(c(O)c1C2=O)C[C@@](O)(C(=O)CO)C[C@@H]3O[C@H]1C[C@H](N)[C@@H](O)[C@H](C)O1 | 4.45%
7 | CN[C@@H]1Cc2cccc3nc(O)n(c23)C1 | 5.61%
8 | CCCN(CCC)CCc1cccc2c1CC(=O)N2 | 5.76%
9 | O[C@H]1[C@H](O)[C@@H](O)[C@H](O)[C@@H](O)[C@H]1O | -4.17%
10 | CCN1CCN(C(=O)NC(C(=O)NC2C(=O)N3C(C(=O)O)=C(CSc4nnnn4C)CSC23)c2ccc(O)cc2)C(=O)C1=O (stereo not shown) | -3.65%
11 | C=C(C)[C@@H]1CC[C@]2(CO)CC[C@]3(C)[C@H](CC[C@@H]4[C@@]5(C)CC[C@H](O)C(C)(C)[C@@H]5CC[C@]43C)[C@@H]12 | -4.87%
12 | COC(=O)C[C@](O)(CCCC(C)(C)O)C(=O)O[C@@H]1C(OC)=C[C@]23CCCN2CCc2cc4c(cc2[C@H]13)OCO4 | -2.84%
13 | C[C@@H]1[C@H](O)[C@@H](C)/C=C/C=C/C=C/C=C/C=C/C=C/C=C/[C@H](O[C@@H]2O[C@H](C)[C@@H](O)[C@H](N)[C@@H]2O)C[C@@H]2O[C@](O)(C[C@@H](O)C[C@@H](O)[C@H](O)CC[C@@H](O)C[C@@H](O)CC(=O)O[C@H]1C)C[C@H](O)[C@H]2C(=O)O | 0.23%
14 | O=C(/C=C/c1c(C(=O)[O-])[nH]c2cc(Cl)cc(Cl)c12)Nc1ccccc1 | 0.43%
15 | CNCCc1ccc(O)c(O)c1 | 0.38%
16 | O=C(CCNNC(=O)c1ccncc1)NCc1ccccc1 | 3.95%
17 | Fc1ccccc1CNCc1ccc(-c2ccnc3[nH]ccc23)cc1 | 10.7%
18 | Cc1cnc(-c2ccccc2C(C)C)nc1NCc1ccc(-n2ccnn2)cc1 | -1.95%
19 | Cc1ccc(=O)n(-c2ccc(O)cc2)c1 | -2.59%
20 | Cc1ccccc1N1CCN(CCc2nnc3n2CCCC3)CC1 | -0.76%
21 | CSc1nc2cc(Cl)c(Oc3cccc(Cl)c3Cl)cc2[nH]1 | -2.53%
22 | Cc1nc2ccccn2c(=O)c1CCN1CCC(C(=O)c2ccc(F)cc2)CC1 | -6.13%

Row | Structure (SMILES) | result_ITMP
23 | Nc1ccc(-c2ccc3ncc4ccc(=O)n(-c5cccc(C(F)(F)F)c5)c4c3c2)cn1 | 9.27%
24 | N#C/C(=C1/SCC(c2ccccc2Cl)S1)n1ccnc1 (stereo not shown) | 0.65%
25 | COc1ccc2[n-]c([S@@](=O)Cc3ncc(C)c(OC)c3C)nc2c1 | -8.87%
26 | CCCCC[C@H](O)/C=C/[C@H]1[C@H](O)CC(=O)[C@@H]1C/C=C\CCCC(=O)O | -1.87%
27 | Cn1cnc2c(F)c(Nc3ccc(Br)cc3F)c(C(=O)NOCCO)cc21 | 12.3%
28 | C#Cc1cccc(Nc2ncnc3cc(OCCOC)c(OCCO)cc23)c1 | 20.2%
29 | CC[C@H](CC#N)OC(=O)N[C@@H](C)c1cccc(NC(=O)Nc2ccc(-c3cnco3)c(OC)c2)c1 | -2.01%
30 | Nc1nc(N)c(N=O)c(OCC2CCCCC2)n1 | -4.05%
31 | CO[C@@H]1[C@H](OC(=O)/C=C/C=C/C=C/C=C/C(=O)O)CC[C@]2(CO2)[C@H]1[C@@]1(C)O[C@@H]1CC=C(C)C | 10.7%
32 | NC(=O)c1cnccn1 | -3.14%
33 | CC(C)(C)CC(C)(C)c1cc(Cc2cc(C(C)(C)CC(C)(C)C)cc(-n3nc4ccccc4n3)c2O)c(O)c(-n2nc3ccccc3n2)c1 | 9.42%
34 | FC(F)(F)c1cc(NC(=S)Nc2ccc(Br)cc2-c2nnn[nH]2)cc(C(F)(F)F)c1 | -0.44%
35 | NCCCC[C@H](NC(=O)[C@@H](Cc1cc(Br)c(O)c(Br)c1)NC(=O)N1CCC(N2Cc3ccccc3NC2=O)CC1)C(=O)N1CCN(c2ccncc2)CC1 | 0.57%
36 | Cc1ccc(NC(=O)C2(c3ccc4c(c3)OC(F)(F)O4)CC2)nc1-c1cccc(C(=O)O)c1 | -7.5%
37 | Nc1nc(=O)n([C@H]2C[C@H](O)[C@@H](CO)O2)cc1Cl | -4.04%
38 | CNC(=O)c1ccc(Nc2ncc(C(F)(F)F)c(NCc3nccnc3N(C)S(C)(=O)=O)n2)cc1 | 1.87%
39 | CCOC(=O)[C@@H](N)CCC(=O)N[C@@H](CSCc1ccccc1)C(=O)N[C@@H](C(=O)OCC)c1ccccc1 | -1.89%
40 | Cc1c(O)c(=O)n(-c2ccccc2)n1C | -4.93%
41 | C=C1CC/C=C(\C)CC[C@@H]2[C@@H]1CC2(C)C | -2.44%
42 | CC(C)OC(=O)C(C)(C)Oc1ccc(C(=O)c2ccc(Cl)cc2)cc1 | 0.11%
43 | OCCOc1ccc(/C(=C(/CCCl)c2ccccc2)c2ccccc2)cc1 | -2.96%
44 | COc1cc2c(NC3CCN(C)CC3)nc(N3CCCN(C)CC3)nc2cc1OCCCN(C)C | -1.66%

Row | Structure (SMILES) | result_ITMP
45 | NS(=O)(=O)c1ccc(S(=O)(=O)Nc2cccc3c(Cl)c[nH]c23)cc1 | 5.99%
46 | CCN(CC)CCOc1ccc(Nc2ncc3cc(-c4c(Cl)cccc4Cl)c(=O)n(C)c3n2)cc1 | 24.2%
47 | CCn1c(-c2nonc2N)nc2c(C#CC(C)(C)O)ncc(OC[C@H]3CCCNC3)c21 | -4.28%
48 | COc1cc(N)c(Cl)cc1C(=O)N[C@@H]1CCN(CCCOc2ccc(F)cc2)C[C@@H]1OC (racemic) | 6.26%
49 | NC(=O)CC[C@H](N)C(=O)O | -2.87%
50 | O=C1c2ccccc2C(=O)C1c1ccc(Br)cc1 | -6.58%
51 | Cc1cc2c(s1)Nc1ccccc1N=C2N1CCN(C)CC1 | -8.9%
52 | Cc1cc(C(=O)O)sc1C(N)C(=O)O (stereo not shown) | 0.29%
53 | NC(=O)C(c1ccccc1)(c1ccccc1)C1CCN(CCc2ccc3c(c2)CCO3)C1 (stereo not shown) | 22.4%
54 | Cn1c(-c2ccccc2)nnc1S(C)(=O)=O | -3.26%
55 | CN1C(=O)C(Cc2c[nH]c3ccccc23)NC1=S (stereo not shown) | -3.91%
56 | CCC[C@H](N[C@H]1CCc2cc(F)cc(F)c2C1)C(=O)Nc1cn(C(C)(C)CNCC(C)(C)C)cn1 | 2.75%
57 | CCOC(=S)SSC(=S)OCC | -5.5%
58 | C/C(=C\c1csc(C)n1)[C@@H]1C[C@@H]2O[C@]2(C)CCC[C@H](C)[C@H](O)[C@@H](C)C(=O)C(C)(C)[C@@H](O)CC(=O)O1 | 6.43%
59 | Oc1cccc(O)c1 | -3.42%
60 | C[C@@H](O[C@H]1OCCN(Cc2n[nH]c(=O)[nH]2)[C@H]1c1ccc(F)cc1)c1cc(C(F)(F)F)cc(C(F)(F)F)c1 | 2.55%
61 | O=C(NCCCCN1CCN(c2cccc(Cl)c2Cl)CC1)c1ccc2c(c1)Cc1ccccc1-2 | 24.3%
62 | CC(Cc1ccc(O)cc1)NCC(O)c1cc(O)cc(O)c1 (stereo not shown) | -1.14%
63 | CCCCN(CCCC)CC(O)c1cc(Cl)cc2c1-c1ccc(Cl)cc1/C2=C/c1ccc(Cl)cc1 (stereo not shown) | -0.63%
64 | Cc1cn(-c2cc(NC(=O)c3ccc(C)c(Nc4nccc(-c5cccnc5)n4)c3)cc(C(F)(F)F)c2)cn1 | -4.08%
65 | CC1(C)CCC(C)(C)c2c1cc(C(=O)Nc1cc(F)c(C(=O)O)c(F)c1)c(O)c2Cl | -2.47%
66 | Cc1cc(O)cc(C)c1Cl | -1.23%

Row | Structure (SMILES) | result_ITMP
67 | CCCNC(=O)Nc1ccc(Oc2ncnc3cc(OC)c(OC)cc23)cc1Cl | -5.8%
68 | COC(=O)CCC(=O)CN | -4.09%
69 | O=C(NCc1ccccn1)Nc1nnc(-c2ccco2)o1 | -4.85%
70 | CN(C)C(=O)C(=O)c1cn(C)c2cc(Cl)c(C(=O)N3CCC(Cc4ccc(F)cc4)CC3)cc12 | -2.38%
71 | Cc1cc(N2CCOCC2)ccc1Nc1nc(NC2CCCCC2)c2nc[nH]c2n1 | 0.21%
72 | C/C=C/c1cc(OC)c(OC)cc1OC | -1.85%
73 | O=C(O)c1ccccc1S | -3.45%
74 | CCN1C[C@H](C)n2c(c(O)c3c(=O)n(Cc4ccc(F)c(Cl)c4)nc(C(=O)NC)c32)C1=O | -3.06%
75 | O=C(O)CC/C=C\C[C@@H]1CO[C@H](c2ccccc2Cl)O[C@@H]1c1ccccc1O (racemic) | -1.11%
76 | COc1ccc2cc(C(C)C(=O)Oc3ccc(C(N)=S)cc3)ccc2c1 (stereo not shown) | -1.47%
77 | CC(=O)c1c(C)c2cnc(Nc3ccc(N4CCNCC4)cn3)nc2n(C2CCCC2)c1=O | 36.4%
78 | C1CCc2nnnn2CC1 | -7.15%
79 | C[C@]12C=CC(=O)N[C@@H]1CC[C@@H]1[C@@H]2CC[C@]2(C)[C@@H](C(=O)Nc3cc(C(F)(F)F)ccc3C(F)(F)F)CC[C@@H]12 | -3.63%
80 | Clc1ccc2c(N3CCN(CCCN4CCN(c5ccnc6cc(Cl)ccc56)CC4)CC3)ccnc2c1 | 6.97%
81 | Cc1ccccc1-n1c(CF)nc2ccc(N)cc2c1=O | -2.2%
82 | CC(C)(C)c1ccc(S(=O)(=O)/C=C/C#N)cc1 | -2.64%
83 | COc1nccnc1NS(=O)(=O)c1ccc(N)cc1 | 4.24%
84 | CC[C@H]1[C@@H](O)C2C3CC[C@H]([C@H](C)CCC(=O)O)[C@@]3(C)CCC2[C@@]2(C)CC[C@@H](O)C[C@@H]12 (stereo partly shown) | -3.95%
85 | CC(N)CCCC(C)(C)O (stereo not shown) | -8.75%
